Several values for one entry are separate records, joined by “and”; a condition that tells them apart may be missing. Equal values may be shown once. Screen size: about 270,000 compounds; about 5,800 (2.1%) were called active. This list was built around the results that the source calls inconclusive (neither active nor inactive); the mix of calls is not that of the screen. Calls follow the shape of the dose curve; as a rule, active = well fitted inhibition curve with a large enough effect; inconclusive = small, poorly fitted or top-dose-only effect; inactive = flat fitted curve, though single readings scatter. Where the call is inconclusive, the potency comes from a doubtful curve fit.
These molecules were tested against Microtubule-associated protein tau (Homo sapiens) (UniProt P10636) (assay: qHTS for Inhibitors of Tau Fibril Formation, Thioflavin T Binding). Settings: recombinant tau K18 P301L (four-repeat tau fragment), heparin-induced fibrillization, ThT fluorescence; series mostly up to 57.4 µM.
UniProt P10636, sequence (P10636 whole entry, looked up, the tested form may be a part): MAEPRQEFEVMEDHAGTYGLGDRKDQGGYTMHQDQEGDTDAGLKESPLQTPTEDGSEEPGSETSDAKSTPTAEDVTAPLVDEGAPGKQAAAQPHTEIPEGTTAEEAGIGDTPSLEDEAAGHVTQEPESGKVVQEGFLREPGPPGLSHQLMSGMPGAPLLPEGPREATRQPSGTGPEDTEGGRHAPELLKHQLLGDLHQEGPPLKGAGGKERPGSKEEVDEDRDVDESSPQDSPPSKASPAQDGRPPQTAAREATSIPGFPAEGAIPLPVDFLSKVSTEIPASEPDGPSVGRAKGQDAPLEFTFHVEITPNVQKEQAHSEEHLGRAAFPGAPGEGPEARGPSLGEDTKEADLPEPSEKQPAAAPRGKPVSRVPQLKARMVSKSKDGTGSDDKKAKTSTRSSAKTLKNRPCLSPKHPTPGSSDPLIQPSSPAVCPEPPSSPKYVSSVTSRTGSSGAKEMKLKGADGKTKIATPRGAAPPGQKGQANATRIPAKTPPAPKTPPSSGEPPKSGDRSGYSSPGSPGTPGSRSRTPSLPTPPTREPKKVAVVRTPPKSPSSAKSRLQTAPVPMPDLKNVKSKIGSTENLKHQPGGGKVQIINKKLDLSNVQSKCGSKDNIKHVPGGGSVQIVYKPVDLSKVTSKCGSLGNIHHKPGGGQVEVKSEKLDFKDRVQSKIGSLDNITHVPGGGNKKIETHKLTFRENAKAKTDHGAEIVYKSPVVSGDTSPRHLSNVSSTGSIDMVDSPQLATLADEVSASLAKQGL
Method in brief: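 Heparin-induced fibrillization of the P301L-mutant K18 repeat-domain fragment of human tau was followed by ThT binding in quantitative high-throughput format.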
Also: nearly all actives have a fitted effect of over 55% in size.
Potency is read from the fitted curve at half-maximal effect; tags tell the direction and shape of the fitted curve.

| Compound | Potency |
| --- | --- |
| c1ccc2nc(N3CCNCC3)ccc2c1 | inactive |
| O=C1NC(=S)NC(=O)C1C1CCCCC1 | inactive |
| O=C(N=Nc1c(O)[nH]c(=O)[nH]c1=O)C1COc2cc3ccccc3cc2O1 (stereo unspecified) | inconclusive: 31.6 µM [inhibitor, single point] |
| CN1C(=O)C(Cc2cccs2)C(=O)N(C)C1=O | inconclusive: 14.1 µM [inhibitor, partial curve] |
| Clc1ccc(CO/N=C(\Cn2ccnc2)c2ccc(Cl)cc2Cl)c(Cl)c1 | inconclusive: 20 µM [inhibitor, partial curve, poor fit] |
| Oc1cc(O)c2c(c1)OC(c1cc(O)c(O)c(O)c1)C(O)C2 (stereo unspecified) | active: 25.1 µM |
| Cc1ccc(OCC(=O)N2CCN(C3CCC(c4ccccc4)CC3)CC2)cc1 (stereo unspecified) | inconclusive: 15.8 µM [inhibitor, partial curve, poor fit] |
| CCN(CC)S(=O)(=O)c1cc(NC(=O)C(C)N2CC=C(c3ccccc3)CC2)ccc1C (stereo unspecified) | inconclusive: 25.1 µM [inhibitor, single point] |
| CSc1ncc(/C=C2/C(=O)NC(=O)N(c3ccc(C)cc3)C2=O)cn1 | inconclusive: 14.1 µM [inhibitor, partial curve] |
| C[C@H](O)[C@H]1CC[C@H]2[C@@H]3CCC4=CC(=O)CC[C@]4(C)[C@H]3CC[C@]12C | inconclusive: 15.8 µM [inhibitor, partial curve] |
| CN1C(=O)N(C)C(=O)C2(Sc3ccccc3C2=O)C1=O | inconclusive: 17.8 µM [inhibitor, partial curve] |
| Nc1ccc2cc(Br)ccc2c1 | inconclusive: 28.2 µM [inhibitor, partial curve] |
| CN(C)c1ccc(/C=C2/C(=O)NC(=O)N(CCc3ccc(F)cc3)C2=O)cc1 | inconclusive: 31.6 µM [inhibitor, partial curve] |
| O=C1OCCC1NC1=NCCC1 (stereo unspecified) | inactive |
| O=C1NC(=O)N(Cc2ccccc2)C(=O)/C1=C/c1cnn(-c2ccccc2)c1 | inconclusive: 2.82 µM [inhibitor, full curve] |
| COc1ccc(C(=O)C2CCCN(Cc3cccc(C)n3)C2)c(OC)c1 (stereo unspecified) | inactive |
| COc1ccc(Cc2nccc3cc(OC)c(OC)cc23)cc1OC | inconclusive: 12.6 µM [inhibitor, partial curve] |
| COc1cccc(NC(=O)c2cccn(Cc3ccccc3C)c2=O)c1 | inconclusive: 5.01 µM [inhibitor, full curve, poor fit] |
| CCCOc1ccc2[nH]cc(C3=CCNCC3)c2n1 | inconclusive: 22.4 µM [inhibitor, partial curve] |
| Cn1c(O)c(/C=N/N2CCOCC2)c(=O)n(-c2ccccc2)c1=S | inactive |
| Clc1cccc(N2CCNCC2)c1Cl | inactive |
| COC(=O)c1ccc(N=C(c2ccccc2)c2c(O)n(C)c(=O)n(C)c2=O)cc1 | inconclusive: 25.1 µM [inhibitor, single point] |

| Compound | Potency |
| --- | --- |
| O=c1[nH]c(=O)n(CCC2=CCCCC2)c(O)c1/C=N/Nc1cccc2ccccc12 | active: 17.8 µM |
| Cc1ccc(Cn2cccc(C(=O)Nc3ccc4c(c3)OCCO4)c2=O)cc1 | inconclusive: 12.6 µM [inhibitor, partial curve] |
| Cc1nc(Cl)sc1C(=O)Nc1ccc2ccccc2c1 | inconclusive: 11.2 µM [inhibitor, partial curve] |
| Fc1ccc(CNCCc2ccccc2)cc1 | inactive |
| O=C(N/N=C/c1c(O)n(CCC2=CCCCC2)c(=S)[nH]c1=O)c1ccccc1 | active: 25.1 µM |
| N#CC1=C(N)Oc2c(c(=O)oc3ccccc23)C1c1ccc([N+](=O)[O-])o1 (stereo unspecified) | active: 10 µM |
| CC(=O)c1cccc(NC(=O)CSc2ncc3c(n2)-c2cc(Cl)ccc2N(Cc2ccccc2)S3(=O)=O)c1 | inconclusive: 8.91 µM [activator, full curve, poor fit] |
| CN1CCN(CCC(C#N)(c2ccccc2)c2ccccc2)CC1 | inactive |
| O=[N+]([O-])c1ccc(N2CCOCC2)c2ccncc12 | inconclusive: 31.6 µM [inhibitor, single point] |
| Oc1ccc(/C=N/NP(=S)(c2ccccc2)c2ccccc2)cc1O | inconclusive: 31.6 µM [inhibitor, partial curve] |
| COC(=O)CCCc1[se]c2ccccc2c1I | inconclusive: 50.1 µM [inhibitor, partial curve] |
| CNCCc1c[nH]c2ccc(O)cc12 | inactive |
| CCOP(=S)(NN(Cc1ccccc1)C(=O)c1ccccc1)OCC | inactive |
| O=C(N/N=C/C1C(=O)NC(=S)N(c2ccccc2)C1=O)c1cc(Br)c(O)c(Br)c1 (stereo unspecified) | inconclusive: 10 µM [inhibitor, partial curve] |
| C[C@@]12CCC3C(CC[C@@H]4CC(O)CC[C@@]34C)C1CCC2O (stereo partly specified) | inactive |
| COc1ccc(N2C(=O)NC(=O)/C(=C/c3ccc(N4CCOCC4)cc3)C2=O)cc1 | inconclusive: 10 µM [inhibitor, partial curve] |
| CN(C)C(=O)Oc1ccc(Br)cc1C(=O)Nc1ccc(F)c(Cl)c1 | inconclusive: 11.2 µM [inhibitor, partial curve] |
| Cc1ccc(-c2nn3c(=O)cc(CN4CCN(C(=O)COc5ccc(C)c(C)c5)CC4)nc3s2)cc1 | inconclusive: 11.2 µM [inhibitor, partial curve] |
| O=C1NC(=O)N(c2ccccc2)C(=O)/C1=C\c1ccc2c3c(cccc13)CC2 | inconclusive: 7.94 µM [inhibitor, partial curve] |
| O=C(CN1CCOCC1)c1ccc2cc[nH]c2c1 | inconclusive: 28.2 µM [inhibitor, single point] |
| Cn1c(O)c(C=Nc2ccc(N3CCOCC3)cc2)c(=O)n(C)c1=S | inconclusive: 3.98 µM [inhibitor, partial curve] |
| CCn1c(O)c(C=Nc2ccc(N3CCOCC3)cc2)c(=O)n(CC)c1=S | inconclusive: 5.01 µM [inhibitor, partial curve] |

| Compound | Potency |
| --- | --- |
| CC(=O)Nc1c2sscc-2n(C)c1=O | active: 15.8 µM |
| CC(C)C[C@H]1C(=O)N2CCCC2[C@]2(O)O[C@](NC(=O)[C@@H]3C=C4c5cccc6[nH]c(Br)c(c56)C[C@H]4N(C)C3)(C(C)C)C(=O)N12 (stereo partly specified) | inconclusive: 5.62 µM [inhibitor, full curve] and inconclusive: 7.08 µM [inhibitor, full curve] |
| O=C(OCC(=O)c1ccc([N+](=O)[O-])cc1)/C(=C\c1ccc(Cl)cc1)NC(=O)c1ccccc1 | active: 12.6 µM |
| O=C1C2CCN(CC2)[C@@H]1Cc1ccc2ccccc2c1O | inactive |
| C[C@@]12CC(c3ccoc3)OC(=O)C1CC[C@@]1(C)C2C2C=C[C@@]1(O)C(=O)O2 (stereo partly specified) | inconclusive: 35.5 µM [inhibitor, partial curve, poor fit] |
| COc1ccc(Cn2c(N)c(C(=O)NCc3ccco3)c3nc4ccccc4nc32)cc1OC | active: 14.1 µM |
| CCC1(C)OC(c2ccccc2)=C/C(=C/C=C2C(=O)NC(=O)NC2=O)O1 (stereo unspecified) | inconclusive: 3.16 µM [inhibitor, full curve] |
| Cc1ccc(CN2C3CCCC2CC(NC(=S)NCc2ccccc2)C3)cc1 (stereo unspecified) | inactive |
| COc1ccc(CCNC(=O)COC(=O)Cc2ccccc2)cc1 | inconclusive: 0.0224 µM [activator, full curve, poor fit] |
| O=C(Cc1ccccc1)N1CCN(Cc2cccnc2)CC1 | inactive |
| CCCC12CN3CC(C)(CN(C1)C3c1c(C)[nH]c(=O)[nH]c1=O)C2=O (stereo unspecified) | inactive |
| Oc1ccccc1O | inconclusive: 14.1 µM [inhibitor, partial curve] |
| O=c1[nH]c(=O)n(CCC2=CCCCC2)c(O)c1C=NC1CCN(Cc2ccccc2)CC1 | inactive |
| Cc1ccc(NCc2cccn2-c2nnc(N3CCC(C(=O)NCc4ccc(OC(C)C)cc4)CC3)s2)cc1 | inconclusive: 12.6 µM [inhibitor, single point] |
| COc1ccc(Nc2c(-c3cc(Br)ccc3O)nc3ncccn23)cc1OC | inconclusive: 10 µM [inhibitor, partial curve] |
| O=c1[nH]c(O)c(N=Nc2ccc(SC(F)F)cc2)c(=O)[nH]1 | inconclusive: 5.62 µM [inhibitor, partial curve] |
| CCCC[C@H]1C(=O)O[C@H](C)[C@H](NC(=O)c2cccc(NC=O)c2OC)C(=O)O[C@@H](C)[C@@H]1OC(=O)CC(C)C | inconclusive: 39.8 µM [inhibitor, single point] and inconclusive: 22.4 µM [inhibitor, single point] |
| COc1cc(CN2CCCC(C(=O)c3sccc3C)C2)cc(OC)c1O (stereo unspecified) | inconclusive: 17.8 µM [inhibitor, partial curve] |
| CC(C)[C@@]1(NC(=O)[C@H]2CC3c4cccc5[nH]cc(c45)C[C@H]3N(C)C2)O[C@@]2(O)C3CCCN3C(=O)[C@@H](Cc3ccccc3)N2C1=O (stereo partly specified) | inconclusive: 20 µM [inhibitor, single point] and inconclusive: 39.8 µM [inhibitor, single point] |
| Cc1cc(C=C2C(=O)N(C)C(=S)N(C)C2=O)c(C)n1C1CCCCC1 | inconclusive: 10 µM [inhibitor, partial curve, poor fit] |
| Cc1oc(-c2cccc(Cl)c2)nc1CN1CCC(C(=O)NCCCN2CCN(c3ccc(F)cc3)CC2)CC1 | inconclusive: 39.8 µM [inhibitor, single point] |
| Fc1ccc(C(OCCN2CCN(CCCc3ccccc3)CC2)c2ccc(F)cc2)cc1 | inactive and inconclusive: 39.8 µM [inhibitor, single point] and inconclusive: 25.1 µM [inhibitor, partial curve] |

Source: PubChem BioAssay AID1460 (National Center for Advancing Translational Sciences (NCATS), 2008)
